Source: publication PMC12820563, “FoxP3 forms a head-to-head dimer in vivo and stabilizes its multimerization on adjacent microsatellites”
The other results are listed elsewhere or left out.

Each sequence was assayed against T1, MBP-FoxP1dN (Mus musculus, UniProt P58462 326-579) (assay: PD-seq (MBP pull-down with sequencing); 20 mM Tris-HCl pH 7.5, 100 mM NaCl, 1.5 mM MgCl2, 0.4 uM protein, 0.1 uM dsDNA library, 30 min, room temperature, amylose pull-down; high values mean tight binding). Conditions: protein: recombinant; tags: His6-MBP; chain copies: 2; dsDNA, one strand shown.
T1 sequence: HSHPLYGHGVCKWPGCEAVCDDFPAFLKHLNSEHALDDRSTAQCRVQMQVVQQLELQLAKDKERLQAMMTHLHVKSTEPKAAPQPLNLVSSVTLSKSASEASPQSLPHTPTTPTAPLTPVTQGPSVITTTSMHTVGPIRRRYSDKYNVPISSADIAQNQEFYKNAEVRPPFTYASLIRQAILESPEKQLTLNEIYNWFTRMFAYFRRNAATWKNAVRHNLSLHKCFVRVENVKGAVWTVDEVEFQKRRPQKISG
In short: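 The N-terminus-lacking fragment of mouse FoxP3 or FoxP1 carried a His6-MBP tag and was expressed in E. coli. At 0.4 µM it was incubated with 0.1 µM Klenow-filled degenerate double-stranded DNA library for 30 min at room temperature in Tris pH 7.5 buffer with NaCl and MgCl2, and complexes were caught on amylose resin, washed three times, released with proteinase K, PCR-barcoded and Illumina-sequenced. Binding is reads-per-million enrichment of pull-down over input with replicates pooled.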

Compared with “GATGATTGTTCTCCCAGCTGATGAATTGCGGCGGTCGAGTAAACAAATTTTCCTAATCTTTCTGTTCAAGCGCCATCTAC”, “GATGATTGTTCTCCCAGCTGATGAATTGTTACTTTCGAGTAAACAAATTTTCCTAATCTTTCTGTTCAAGCGCCATCTAC” is higher in binding signal: 0.904 RPM ratio (pull-down/input) for the first, 1.52 RPM ratio (pull-down/input) for the second.

Compared with “GATGATTGTTCTCCCAGCTGATGAATTCGCCCAGTCGAGTAAACAAATTTTCCTAATCTTTCTGTTCAAGCGCCATCTAC”, “GATGATTGTTCTCCCAGCTGATGAATTAAGATGCTCGAGTAAACAAATTTTCCTAATCTTTCTGTTCAAGCGCCATCTAC” is higher in binding signal: 0.817 RPM ratio (pull-down/input) for the first, 1.32 RPM ratio (pull-down/input) for the second.

Going from “GATGATTGTTCTCCCAGCTGATGAATTGCGTCGGTCGAGTAAACAAATTTTCCTAATCTTTCTGTTCAAGCGCCATCTAC” to “GATGATTGTTCTCCCAGCTGATGAATTTCGTAGTTCGAGTAAACAAATTTTCCTAATCTTTCTGTTCAAGCGCCATCTAC”, the binding signal falls from 0.962 RPM ratio (pull-down/input) to 0.868 RPM ratio (pull-down/input).

First: GATGATTGTTCTCCCAGCTGATGAATTCCAACGTTCGAGTAAACAAATTTTCCTAATCTTTCTGTTCAAGCGCCATCTAC
Second: GATGATTGTTCTCCCAGCTGATGAATTATTTGTTTCGAGTAAACAAATTTTCCTAATCTTTCTGTTCAAGCGCCATCTAC
The binding signal of the first is lower: 0.849 RPM ratio (pull-down/input) for the first, 2.21 RPM ratio (pull-down/input) for the second.

Going from “GATGATTGTTCTCCCAGCTGATGAATTATGTCAATCGAGTAAACAAATTTTCCTAATCTTTCTGTTCAAGCGCCATCTAC” to “GATGATTGTTCTCCCAGCTGATGAATTTAAGTACTCGAGTAAACAAATTTTCCTAATCTTTCTGTTCAAGCGCCATCTAC”, the binding signal falls from 1.25 RPM ratio (pull-down/input) to 0.985 RPM ratio (pull-down/input).

Going from “GATGATTGTTCTCCCAGCTGATGAATTCCAACCATCGAGTAAACAAATTTTCCTAATCTTTCTGTTCAAGCGCCATCTAC” to “GATGATTGTTCTCCCAGCTGATGAATTAGACGGCTCGAGTAAACAAATTTTCCTAATCTTTCTGTTCAAGCGCCATCTAC”, the binding signal falls from 0.882 RPM ratio (pull-down/input) to 0.845 RPM ratio (pull-down/input).

First: GATGATTGTTCTCCCAGCTGATGAATTGTATCCGTCGAGTAAACAAATTTTCCTAATCTTTCTGTTCAAGCGCCATCTAC
Second: GATGATTGTTCTCCCAGCTGATGAATTGGGCACATCGAGTAAACAAATTTTCCTAATCTTTCTGTTCAAGCGCCATCTAC
The binding signal of the first is lower: 0.976 RPM ratio (pull-down/input) for the first, 1.01 RPM ratio (pull-down/input) for the second.

Going from “GATGATTGTTCTCCCAGCTGATGAATTCTACAGGTCGAGTAAACAAATTTTCCTAATCTTTCTGTTCAAGCGCCATCTAC” to “GATGATTGTTCTCCCAGCTGATGAATTGAAGCTGTCGAGTAAACAAATTTTCCTAATCTTTCTGTTCAAGCGCCATCTAC”, the binding signal rises from 0.727 RPM ratio (pull-down/input) to 0.938 RPM ratio (pull-down/input).

First: GATGATTGTTCTCCCAGCTGATGAATTTCGCGCATCGAGTAAACAAATTTTCCTAATCTTTCTGTTCAAGCGCCATCTAC
Second: GATGATTGTTCTCCCAGCTGATGAATTCACGAGGTCGAGTAAACAAATTTTCCTAATCTTTCTGTTCAAGCGCCATCTAC
The binding signal of the first is higher: 1.15 RPM ratio (pull-down/input) for the first, 0.748 RPM ratio (pull-down/input) for the second.

Going from “GATGATTGTTCTCCCAGCTGATGAATTGCGTTTGTCGAGTAAACAAATTTTCCTAATCTTTCTGTTCAAGCGCCATCTAC” to “GATGATTGTTCTCCCAGCTGATGAATTGGGCGACTCGAGTAAACAAATTTTCCTAATCTTTCTGTTCAAGCGCCATCTAC”, the binding signal falls from 1.23 RPM ratio (pull-down/input) to 0.776 RPM ratio (pull-down/input).

First: GATGATTGTTCTCCCAGCTGATGAATTCCACGATTCGAGTAAACAAATTTTCCTAATCTTTCTGTTCAAGCGCCATCTAC
Second: GATGATTGTTCTCCCAGCTGATGAATTCTCCACTTCGAGTAAACAAATTTTCCTAATCTTTCTGTTCAAGCGCCATCTAC
The binding signal of the first is higher: 0.904 RPM ratio (pull-down/input) for the first, 0.886 RPM ratio (pull-down/input) for the second.

Compared with “GATGATTGTTCTCCCAGCTGATGAATTCTAAGGATCGAGTAAACAAATTTTCCTAATCTTTCTGTTCAAGCGCCATCTAC”, “GATGATTGTTCTCCCAGCTGATGAATTAGATTCCTCGAGTAAACAAATTTTCCTAATCTTTCTGTTCAAGCGCCATCTAC” is higher in binding signal: 0.737 RPM ratio (pull-down/input) for the first, 0.891 RPM ratio (pull-down/input) for the second.

Compared with “GATGATTGTTCTCCCAGCTGATGAATTTTCAAGATCGAGTAAACAAATTTTCCTAATCTTTCTGTTCAAGCGCCATCTAC”, “GATGATTGTTCTCCCAGCTGATGAATTGCTTGGTTCGAGTAAACAAATTTTCCTAATCTTTCTGTTCAAGCGCCATCTAC” is higher in binding signal: 0.859 RPM ratio (pull-down/input) for the first, 1.06 RPM ratio (pull-down/input) for the second.

First: GATGATTGTTCTCCCAGCTGATGAATTCGTAAGCTCGAGTAAACAAATTTTCCTAATCTTTCTGTTCAAGCGCCATCTAC
Second: GATGATTGTTCTCCCAGCTGATGAATTAACATCGTCGAGTAAACAAATTTTCCTAATCTTTCTGTTCAAGCGCCATCTAC
The binding signal of the first is lower: 0.838 RPM ratio (pull-down/input) for the first, 0.998 RPM ratio (pull-down/input) for the second.

Going from “GATGATTGTTCTCCCAGCTGATGAATTTAATACCTCGAGTAAACAAATTTTCCTAATCTTTCTGTTCAAGCGCCATCTAC” to “GATGATTGTTCTCCCAGCTGATGAATTCAGACCCTCGAGTAAACAAATTTTCCTAATCTTTCTGTTCAAGCGCCATCTAC”, the binding signal falls from 0.884 RPM ratio (pull-down/input) to 0.807 RPM ratio (pull-down/input).

Compared with “GATGATTGTTCTCCCAGCTGATGAATTCTAATTATCGAGTAAACAAATTTTCCTAATCTTTCTGTTCAAGCGCCATCTAC”, “GATGATTGTTCTCCCAGCTGATGAATTCTAGTATTCGAGTAAACAAATTTTCCTAATCTTTCTGTTCAAGCGCCATCTAC” is lower in binding signal: 1.22 RPM ratio (pull-down/input) for the first, 1.11 RPM ratio (pull-down/input) for the second.

First: GATGATTGTTCTCCCAGCTGATGAATTCCATTCGTCGAGTAAACAAATTTTCCTAATCTTTCTGTTCAAGCGCCATCTAC
Second: GATGATTGTTCTCCCAGCTGATGAATTCTAAACGTCGAGTAAACAAATTTTCCTAATCTTTCTGTTCAAGCGCCATCTAC
The binding signal of the first is lower: 0.864 RPM ratio (pull-down/input) for the first, 1.01 RPM ratio (pull-down/input) for the second.

First: GATGATTGTTCTCCCAGCTGATGAATTAAATCGGTCGAGTAAACAAATTTTCCTAATCTTTCTGTTCAAGCGCCATCTAC
Second: GATGATTGTTCTCCCAGCTGATGAATTACCTATGTCGAGTAAACAAATTTTCCTAATCTTTCTGTTCAAGCGCCATCTAC
The binding signal of the first is lower: 0.944 RPM ratio (pull-down/input) for the first, 1 RPM ratio (pull-down/input) for the second.

Going from “GATGATTGTTCTCCCAGCTGATGAATTTGAGAGATCGAGTAAACAAATTTTCCTAATCTTTCTGTTCAAGCGCCATCTAC” to “GATGATTGTTCTCCCAGCTGATGAATTCCTTACTTCGAGTAAACAAATTTTCCTAATCTTTCTGTTCAAGCGCCATCTAC”, the binding signal rises from 0.777 RPM ratio (pull-down/input) to 0.847 RPM ratio (pull-down/input).

Compared with “GATGATTGTTCTCCCAGCTGATGAATTTAATAGCTCGAGTAAACAAATTTTCCTAATCTTTCTGTTCAAGCGCCATCTAC”, “GATGATTGTTCTCCCAGCTGATGAATTGGAAGGATCGAGTAAACAAATTTTCCTAATCTTTCTGTTCAAGCGCCATCTAC” is lower in binding signal: 0.957 RPM ratio (pull-down/input) for the first, 0.819 RPM ratio (pull-down/input) for the second.
